{"source": "the supplement of paper PMC8728848", "experiment_in_all_cases": "glycan array binding signal (z-score within array); higher = stronger binding", "conditions_in_all_cases": "glycan notation: IUPAC condensed, linker removed", "key": {"[1]": {"biological_target": "Man(a1-2)Man(a1-6)[Man(a1-3)]Man(a1-6)[Man(a1-2)Man(a1-2)Man(a1-3)]Man(b1-4)GlcNAc(b1-4)GlcNAc", "how_it_was_run": "(§1)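 Glycan array data came from 3228 arrays in the Consortium for Functional Glycomics database, and only arrays with an available protein sequence were kept. Glycan names were put into IUPAC-condensed notation, and columns mapping to the same glycan were averaged. The binding signal is a within-array Z-score, averaged across arrays of one protein sequence run at different concentrations or buffers and across linkers. A negative Z-score can be read as non-binding.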"}, "[2]": {"biological_target": "Man(a1-3)[Man(a1-6)]Man", "how_it_was_run": "as §1"}, "[3]": {"biological_target": "Man(a1-3)[Man(a1-6)]Man(a1-6)[Man(a1-2)Man(a1-3)]Man(b1-4)GlcNAc(b1-4)GlcNAc", "how_it_was_run": "as §1"}, "[4]": {"biological_target": "Man(a1-3)[Man(a1-6)]Man(a1-6)[Man(a1-3)]Man", "how_it_was_run": "as §1"}, "[5]": {"biological_target": "Man(a1-3)[Man(a1-6)]Man(a1-6)[Man(a1-3)]Man(b1-4)GlcNAc(b1-4)GlcNAc", "how_it_was_run": "as §1"}, "[6]": {"biological_target": "Man(a1-3)[Man(a1-6)]Man(b1-4)GlcNAc(b1-4)GlcNAc", "how_it_was_run": "as §1"}, "[7]": {"biological_target": "Man(a1-3)[Man(a1-6)]Man(b1-4)GlcNAc(b1-4)[Fuc(a1-6)]GlcNAc", "how_it_was_run": "as §1"}, "[8]": {"biological_target": "Man(a1-6)Man", "how_it_was_run": "as §1"}, "[9]": {"biological_target": "Man(b1-4)GlcNAc", "how_it_was_run": "as §1"}, "[10]": {"biological_target": "MurNAc(b1-4)GlcNAc", "how_it_was_run": "as §1"}, "[11]": {"biological_target": "Neu5Ac(a2-3)Gal", "how_it_was_run": "as §1"}, "[12]": {"biological_target": "Neu5Ac(a2-3)Gal(b1-3)GalNAc", "how_it_was_run": "as §1"}, "[13]": {"biological_target": "Neu5Ac(a2-3)Gal(b1-3)GalNAc(b1-3)Gal(a1-4)Gal(b1-4)Glc", "how_it_was_run": "as §1"}, "[14]": {"biological_target": "Neu5Ac(a2-3)Gal(b1-3)GalNAc(b1-3)Gal(b1-4)GlcNAc", "how_it_was_run": "as §1"}, "[15]": {"biological_target": "Neu5Ac(a2-3)Gal(b1-3)GalNAc(b1-4)[Neu5Ac(a2-3)]Gal(b1-4)Glc", "how_it_was_run": "as §1"}, "[16]": {"biological_target": "Neu5Ac(a2-3)Gal(b1-3)GalNAc(b1-4)[Neu5Ac(a2-8)Neu5Ac(a2-3)]Gal(b1-4)Glc", "how_it_was_run": "as §1"}, "[17]": {"biological_target": "Neu5Ac(a2-3)Gal(b1-3)GalNAc6S", "how_it_was_run": "as §1"}, "[18]": {"biological_target": "Neu5Ac(a2-3)Gal(b1-3)GlcNAc", "how_it_was_run": "as §1"}, "[19]": {"biological_target": "Neu5Ac(a2-3)Gal(b1-3)GlcNAc(b1-2)Man", "how_it_was_run": "as §1"}, "[20]": {"biological_target": "Neu5Ac(a2-3)Gal(b1-3)GlcNAc(b1-2)Man(a1-3)[GlcNAc(b1-4)][Neu5Ac(a2-3)Gal(b1-3)GlcNAc(b1-2)Man(a1-6)]Man(b1-4)GlcNAc(b1-4)GlcNAc", "how_it_was_run": "as §1"}, "[21]": {"biological_target": "Neu5Ac(a2-3)Gal(b1-3)GlcNAc(b1-2)Man(a1-3)[Neu5Ac(a2-3)Gal(b1-3)GlcNAc(b1-2)Man(a1-6)]Man(b1-4)GlcNAc(b1-4)GlcNAc", "how_it_was_run": "as §1"}, "[22]": {"biological_target": "Neu5Ac(a2-3)Gal(b1-3)GlcNAc(b1-3)Gal(b1-3)GlcNAc", "how_it_was_run": "as §1"}, "[23]": {"biological_target": "Neu5Ac(a2-3)Gal(b1-3)GlcNAc(b1-3)Gal(b1-4)GlcNAc", "how_it_was_run": "as §1"}, "[24]": {"biological_target": "Neu5Ac(a2-3)Gal(b1-3)GlcNAc(b1-3)GalNAc", "how_it_was_run": "as §1"}, "[25]": {"biological_target": "Neu5Ac(a2-3)Gal(b1-3)GlcNAc(b1-4)Gal(b1-4)Glc", "how_it_was_run": "as §1"}, "[26]": {"biological_target": "Neu5Ac(a2-3)Gal(b1-3)GlcNAc(b1-6)GalNAc", "how_it_was_run": "as §1"}, "[27]": {"biological_target": "Neu5Ac(a2-3)Gal(b1-3)GlcNAc6S", "how_it_was_run": "as §1"}, "[28]": {"biological_target": "Neu5Ac(a2-3)Gal(b1-3)[Fuc(a1-4)]GlcNAc", "how_it_was_run": "as §1"}, "[29]": {"biological_target": "Neu5Ac(a2-3)Gal(b1-3)[Fuc(a1-4)]GlcNAc(b1-3)Gal(b1-3)[Fuc(a1-4)]GlcNAc", "how_it_was_run": "as §1"}, "[30]": {"biological_target": "Neu5Ac(a2-3)Gal(b1-3)[Fuc(a1-4)]GlcNAc(b1-3)Gal(b1-4)[Fuc(a1-3)]GlcNAc", "how_it_was_run": "as §1"}, "[31]": {"biological_target": "Neu5Ac(a2-3)Gal(b1-3)[GlcNAc(b1-6)]GalNAc", "how_it_was_run": "as §1"}, "[32]": {"biological_target": "Neu5Ac(a2-3)Gal(b1-3)[Neu5Ac(a2-3)Gal(b1-4)]GlcNAc", "how_it_was_run": "as §1"}, "[33]": {"biological_target": "Neu5Ac(a2-3)Gal(b1-3)[Neu5Ac(a2-6)]GalNAc", "how_it_was_run": "as §1"}, "[34]": {"biological_target": "Neu5Ac(a2-3)Gal(b1-3)[Neu5Ac(a2-6)]GlcNAc(b1-3)[Fuc(a1-3)[Gal(b1-4)]GlcNAc(b1-6)]Gal(b1-4)Glc", "how_it_was_run": "as §1"}, "[35]": {"biological_target": "Neu5Ac(a2-3)Gal(b1-3)]Neu5Ac(a2-3)Gal(b1-4)]GlcNAc", "how_it_was_run": "as §1"}, "[36]": {"biological_target": "Neu5Ac(a2-3)Gal(b1-4)Glc", "how_it_was_run": "as §1"}, "[37]": {"biological_target": "Neu5Ac(a2-3)Gal(b1-4)GlcNAc", "how_it_was_run": "as §1"}, "[38]": {"biological_target": "Neu5Ac(a2-3)Gal(b1-4)GlcNAc(b1-2)Man", "how_it_was_run": "as §1"}}, "note": "Some of the results follow.", "data": [{"binder": "LTL (Lotus tetragonolobus), P19664 (protein) VSFNYTEFKDDGSLILQGDAKIWTDGRLAMPTDPLVNNPKTTRSAGRALYATPVPIWDSATGNVASFVTSFNFLFVIRELKYTPTDGLVFFLAPVGTEIPSGSTGGFLGIFDGSNGFNQFVAVEFDSYHNIWDPKSLRSSHVGIDVNSIMSLKAVNWNRVSGSLEKATIIYDSQTNILSVVMTSQNGQITTIYGTIDLKTVLPEKVSVGFSATTGNPEREKHDIYSWSFTSTLKEPEEQA", "values": [{"measurement": "glycan array binding signal (z-score)", "setting": "[1]", "value": -0.278}, {"measurement": "glycan array binding signal (z-score)", "setting": "[2]", "value": -0.207}, {"measurement": "glycan array binding signal (z-score)", "setting": "[3]", "value": 0.802}, {"measurement": "glycan array binding signal (z-score)", "setting": "[4]", "value": 0.02}, {"measurement": "glycan array binding signal (z-score)", "setting": "[5]", "value": -0.065}, {"measurement": "glycan array binding signal (z-score)", "setting": "[6]", "value": -0.159}, {"measurement": "glycan array binding signal (z-score)", "setting": "[7]", "value": -0.407}, {"measurement": "glycan array binding signal (z-score)", "setting": "[8]", "value": -0.141}, {"measurement": "glycan array binding signal (z-score)", "setting": "[9]", "value": -0.138}, {"measurement": "glycan array binding signal (z-score)", "setting": "[10]", "value": -0.125}, {"measurement": "glycan array binding signal (z-score)", "setting": "[11]", "value": -0.202}, {"measurement": "glycan array binding signal (z-score)", "setting": "[12]", "value": -0.29}, {"measurement": "glycan array binding signal (z-score)", "setting": "[13]", "value": -0.072}, {"measurement": "glycan array binding signal (z-score)", "setting": "[14]", "value": -0.26}, {"measurement": "glycan array binding signal (z-score)", "setting": "[15]", "value": -0.094}, {"measurement": "glycan array binding signal (z-score)", "setting": "[16]", "value": -0.292}, {"measurement": "glycan array binding signal (z-score)", "setting": "[17]", "value": -0.292}, {"measurement": "glycan array binding signal (z-score)", "setting": "[18]", "value": -0.107}, {"measurement": "glycan array binding signal (z-score)", "setting": "[19]", "value": 0.037}, {"measurement": "glycan array binding signal (z-score)", "setting": "[20]", "value": -0.354}, {"measurement": "glycan array binding signal (z-score)", "setting": "[21]", "value": -0.099}, {"measurement": "glycan array binding signal (z-score)", "setting": "[22]", "value": -0.076}, {"measurement": "glycan array binding signal (z-score)", "setting": "[23]", "value": -0.318}, {"measurement": "glycan array binding signal (z-score)", "setting": "[24]", "value": -0.199}, {"measurement": "glycan array binding signal (z-score)", "setting": "[25]", "value": -0.188}, {"measurement": "glycan array binding signal (z-score)", "setting": "[26]", "value": 0.17}, {"measurement": "glycan array binding signal (z-score)", "setting": "[27]", "value": 0.289}, {"measurement": "glycan array binding signal (z-score)", "setting": "[28]", "value": 0.005}, {"measurement": "glycan array binding signal (z-score)", "setting": "[29]", "value": 0.038}, {"measurement": "glycan array binding signal (z-score)", "setting": "[30]", "value": -0.135}, {"measurement": "glycan array binding signal (z-score)", "setting": "[31]", "value": -0.138}, {"measurement": "glycan array binding signal (z-score)", "setting": "[32]", "value": -0.084}, {"measurement": "glycan array binding signal (z-score)", "setting": "[33]", "value": -0.277}, {"measurement": "glycan array binding signal (z-score)", "setting": "[34]", "value": -0.123}, {"measurement": "glycan array binding signal (z-score)", "setting": "[35]", "value": -0.203}, {"measurement": "glycan array binding signal (z-score)", "setting": "[36]", "value": -0.023}, {"measurement": "glycan array binding signal (z-score)", "setting": "[37]", "value": -0.157}, {"measurement": "glycan array binding signal (z-score)", "setting": "[38]", "value": 0.022}]}]}
